Source: patent US7592316B2, “Peptides as NS3-serine protease inhibitors of hepatitis C virus” (Schering Corporation, priority 2000, dated 2009)
*1 amine or outer side, *2 acyl side, *3 side chain or, on linkers, in order; H or OH if unused. Where a SMILES comes first, the peptide text is derived from it. [ ]: non-standard residue; d: D form. The star is where a group is joined. ξ: configuration not given here. Pro(3R,4S-CMe2) = CC1(C)[C@@H]2[C@@H](C(=O)O)NC[C@@H]21; Pro(3S,4R-CMe2) = CC1(C)[C@H]2[C@@H](C(=O)O)NC[C@H]21; ξLeu(ψCOCO) = CC(C)CC(N[*:1])C(=O)C(=O)[*:2]; Gly(2-thienyl) = N[C@H](C(=O)O)c1cccs1; Pro(4,4-Me2) = CC1(C)CN[C@H](C(=O)O)C1; X6 = C=CCCC(N[*:1])C(=O)C(=O)[*:2]; Igl = N[C@H](C(=O)O)C1Cc2ccccc2C1; X4 = CCCCC(N[*:1])C(=O)C(=O)[*:2]; X2 = CCCC(N[*:1])C(=O)C(=O)[*:2]; Phg = N[C@H](C(=O)O)c1ccccc1; Tle = CC(C)(C)[C@H](N)C(=O)O; ξPhg = NC(C(=O)O)c1ccccc1; Boc = CC(C)(C)OC(=O)*

target: HCV NS3/NS4A protease (strain 1a) (Hepatitis C virus genotype 1a, UniProt P27958); assay: biochemical; conditions: HCV protease continuous assay results, Table 1; read-out: Ki* Range

SMILES	Ki
C=CCCNC(=O)C(=O)C(CCCC)NC(=O)[C@@H]1[C@@H]2[C@H](CN1C(=O)[C@@H](NC(=O)OC(C)(C)C)C(C)(C)C)C2(C)C (some centres unmarked) [Example 361]	101 to 1000 nM
CCCCC(NC(=O)[C@@H]1[C@@H]2[C@H](CN1C(=O)[C@@H](NC(=O)OC(C)(C)C)C(C)(C)C)C2(C)C)C(=O)C(=O)NCCOC (some centres unmarked) [Example 362]	> 1000 nM

same assay, conditions: Table 5; HCV NS3/NS4A protease, 30° C., pH 6.5; read-out: Ki* Range

SMILES	Ki
C=CCCC(NC(=O)[C@@H]1[C@H]2[C@@H](CN1C(=O)[C@@H](NC(=O)NC(C)c1ccccc1)C1Cc3ccccc3C1)C2(C)C)C(=O)C(=O)NCC=C (some centres unmarked) [drawing 1925]	101 to 1000 nM
C=CCCC(NC(=O)[C@@H]1[C@@H]2[C@H](CN1C(=O)[C@@H](NC(=O)NC13CC4CC(CC(C4)C1)C3)C1CCCCC1)C2(C)C)C(=O)C(=O)NC/C=C/C(=O)NCc1ccccc1 (some centres unmarked) [drawing 1957]	101 to 1000 nM

same assay, conditions: Table 5; HCV NS3/NS4A protease, spectrophotometric assay, 30° C., pH 6.5; read-out: Ki* Range

SMILES	Ki
CC(C)NC(=O)N[C@H](C(=O)N1C[C@H]2[C@@H]([C@H]1C(=O)NC(CC1CC1)C(=O)C(N)=O)C2(C)C)C(C)(C)C (some centres unmarked) [drawing 1365]	101 to 1000 nM
CCCC(NC(=O)[C@@H]1[C@@H]2[C@H](CN1C(=O)[C@@H](NC(=O)OC(C)(C)C)C(C)(C)C)C2(C)C)C(=O)C(=O)N[C@@H](C)C(=O)NC(C(=O)N(C)C)c1ccccc1 (stereo partly drawn) [drawing 1509] (Boc-[Tle][Pro(3R,4S-CMe2)][X2]A[ξPhg]-NMe2)	1 to 100 nM
CCCCC(NC(=O)[C@@H]1[C@H]2[C@@H](CN1C(=O)[C@@H](NC(=O)OC(C)(C)C)C(C)(C)C)C2(C)C)C(=O)C(=O)NCC(=O)N[C@H](C(=O)N(C)C)c1cccs1 (stereo partly drawn) [drawing 1524] (Boc-[Tle][Pro(3S,4R-CMe2)][X4]G[Gly(2-thienyl)]-NMe2)	1 to 100 nM
CC(C)CC(NC(=O)[C@@H]1CC(C)(C)CN1C(=O)[C@@H](NC(=O)OC(C)(C)C)C(C)(C)C)C(=O)C(=O)NCC(=O)N[C@H](C(=O)N(C)C)c1ccccc1 (some centres unmarked) [drawing 1552] (Boc-[Tle][Pro(4,4-Me2)][ξLeu(ψCOCO)]G[Phg]-NMe2)	1 to 100 nM
CCCC(NC(=O)[C@@H]1CC(C)(C)CN1C(=O)[C@@H](NC(=O)OC(C)(C)C)C(C)(C)C)C(=O)C(=O)NCC(=O)N[C@H](C(=O)N(C)C)c1ccccc1 (some centres unmarked) [drawing 1554] (Boc-[Tle][Pro(4,4-Me2)][X2]G[Phg]-NMe2)	1 to 100 nM
CN(C)C(=O)[C@@H](NC(=O)CNC(=O)C(=O)C(CC1CC1)NC(=O)[C@@H]1C2C(CN1C(=O)[C@@H](NC(=O)OC(C)(C)C)C1Cc3ccccc3C1)C2(C)C)c1ccccc1 (some centres unmarked) [drawing 1614]	1 to 100 nM
C=CCCC(NC(=O)[C@@H]1[C@H]2[C@@H](CN1C(=O)[C@@H](NC(=O)OC(C)(C)C)C1Cc3ccccc3C1)C2(C)C)C(=O)C(=O)NCC(=O)N[C@H](C(=O)N(C)C)c1ccccc1 (stereo partly drawn) [drawing 1616] (Boc-[Igl][Pro(3S,4R-CMe2)][X6]G[Phg]-NMe2)	1 to 100 nM
CCCC(NC(=O)[C@@H]1[C@H]2[C@@H](CN1C(=O)C(NC(=O)OC(C)(C)C)C1CCCCC1)C2(Cl)Cl)C(=O)C(=O)NCC(=O)N[C@H](C(=O)N(C)C)c1ccccc1 (some centres unmarked) [drawing 1619]	1 to 100 nM
C=CCCNC(=O)C(=O)C(CCCC)NC(=O)[C@@H]1[C@@H]2[C@H](CN1C(=O)[C@@H](NC(=O)OC(C)(C)C)C(C)(C)C)C2(C)C (some centres unmarked) [drawing 1702]	101 to 1000 nM
CCCCC(NC(=O)[C@@H]1[C@@H]2[C@H](CN1C(=O)[C@@H](NC(=O)OC(C)(C)C)C(C)(C)C)C2(C)C)C(=O)C(=O)NCCOC (some centres unmarked) [drawing 1703]	> 1000 nM
C=CCNC(=O)C(=O)C(CCC)NC(=O)[C@@H]1CC(C)(C)CN1C(=O)[C@H](NC(=O)OC(C)(C)C)C(C)(C)C (some centres unmarked) [drawing 1717]	> 1000 nM
C=CCNC(=O)C(=O)[C@@H](CCC)NC(=O)[C@@H]1C2CCC(C2)N1C(=O)[C@@H](NC(=O)OC(C)(C)C)C1CCCCC1 (some centres unmarked) [drawing 1739]	> 1000 nM
C=CCC(NC(=O)[C@@H]1[C@@H]2[C@H](CN1C(=O)[C@@H](NC(=O)OC(C)(C)C)C(C)(C)C)C2(C)C)C(=O)C(=O)NCC(=O)N1CCc2ccccc2C1 (some centres unmarked) [drawing 1752]	> 1000 nM
C=CCCC(NC(=O)C1C2CC2CN1C(=O)[C@@H](NC(=O)OC(C)(C)C)C(C)(C)C)C(=O)C(=O)NCC=C (some centres unmarked) [drawing 1777]	> 1000 nM
C=CCC(NC(=O)[C@@H]1[C@H]2[C@H](CN1C(=O)[C@@H](NC(=O)OC(C)(C)C)C(C)(C)C)C2(C)C)C(=O)C(=O)NCC(=O)NCc1ccc(Br)cc1 (some centres unmarked) [drawing 1784]	101 to 1000 nM
C=CCC(NC(=O)[C@@H]1[C@H]2[C@H](CN1C(=O)[C@@H](NC(=O)OC(C)(C)C)C(C)(C)C)C2(C)C)C(=O)C(=O)NCC(=O)NCc1ccc(Br)cc1 (some centres unmarked) [drawing 1785]	> 1000 nM
C=CCNC(=O)C(=O)C(CCC)NC(=O)C1C2CC(C3CC32)N1C(=O)C(NC(=O)OC(C)(C)C)C1CCCCC1 (centres unmarked) [drawing 1810]	> 1000 nM
C=CCNC(=O)C(=O)C(CCC)NC(=O)[C@@H]1[C@@H]2[C@H](CN1C(=O)[C@@H](NC(=O)OCC(C)(C)C)C1CCCCC1)C2(C)C (some centres unmarked) [drawing 1826]	101 to 1000 nM
C=CCCC(NC(=O)[C@@H]1[C@@H]2[C@H](CN1C(=O)C(NC(=O)OC(C)(C)C)C1C=CCCC1)C2(C)C)C(=O)C(=O)NCC=C (some centres unmarked) [drawing 1861]	> 1000 nM
